Our source for the survival values is PubChem BioAssay AID463173 (ICCB-Longwood Screening Facility, Harvard Medical School, 2010).

In all, about 52,000 compounds went through this assay and about 1,700 (3.3%) were called active. Rule as the data show it: active = survival mostly below about 52% (no sharp cut-off); inactive = mostly above about 56%. This is one part of the list.

The test deals with Wild type. Briefly: growth inhibition of S. aureus wild type versus tarO mutant, primary screen, teichoic acid synthesis inhibitors, RN4220, OD600 (AID 463173). To be noted: S. aureus RN4220 wild type/DeltatarO growth, OD600, 18 h, active compounds read low, screened at 18.75 µg/mL (by protocol).
Take `COC(=O)c1ccc(NS(=O)(=O)c2ccc3c(c2)n(C)c(=O)c(=O)n3C)cc1`: the survival was inactive: 90%.

`Cn1c2c(c(=O)n(C)c1=O)C(c1ccccc1C(F)(F)F)CC(=O)N2` (stereo not given): the survival is inactive: 77%.

Take `CCOC(=O)c1ccc(CN(Cc2ccc(F)cc2)S(=O)(=O)c2ccc(F)c(C(=O)Nc3ccccc3C(F)(F)F)c2)cc1`: the survival is inactive: 89%.

Regarding `CC(C)(CC(=O)NCc1ccc(Cl)cc1Cl)CC1=NS(=O)(=O)c2ccccc2N1`, the survival was inactive: 83%.

For `Cc1ccc(C(=O)N2CCN(c3cccc(Cl)c3)CC2)cc1-n1c(C)nc2cccnc21`, the survival was inactive: 84%.

On to `CCNC(=O)CC1C(=O)N(c2ccc(F)cc2)C(=O)N1Cc1ccc(OC)c(OC)c1` (stereo not given), for which the survival was inactive: 90%.

For `COc1cc(Cl)c(C)cc1NC(=O)C1CCCN(c2ncnc3onc(-c4ccc(F)cc4)c23)C1` (stereo not given), the survival is inactive: 71%.

Consider `O=C(c1ccc2c(c1)N(Cc1cccc(Cl)c1)C(=O)c1ccccc1S2(=O)=O)N1CCc2ccccc21`, for which the survival was active: -3%.

Take `CCc1ccccc1N(CC)C(=O)C(=O)Nc1ccc2nc3n(c(=O)c2c1)CCCCC3`: the survival was inactive: 71%.

In the case of `CCOC(=O)c1cccc(NC(=O)CCn2nc(C)c3c(C)n(-c4ccccc4)nc3c2=O)c1`, the survival was inactive: 73%.

As to `COCCCNC(=O)C1CCCN(S(=O)(=O)c2ccc3c(c2)oc(=O)n3C)C1` (stereo not given), the survival was inactive: 90%.

With `Cc1cc2c(cc1S(=O)(=O)N(C)CC(=O)Nc1cccc(C#N)c1)OCC(=O)N2`, the survival is active: -4%.

On to `CC1=Nc2cc(C(=O)NC3CCCC3)ccc2Sc2ccc(Br)cc21`, for which the survival was inactive: 71%.

On to `Nc1sccc1C(=O)c1ccccc1`, for which the survival is inactive: 114%.

Turning to `CN(C)CCCNc1nc(-c2ccc(Cl)cc2)cs1`, the survival was inactive: 107%.

With `COc1ccccc1CNC(=O)c1ccc(CN2CC(=O)N3CCCCC3C2=O)cc1` (stereo not given), the survival is inactive: 72%.

Turning to `CCN(CC)c1ccc(NC(=O)CN2CCN(CC(=O)Nc3ccccc3OC)CC2)cc1`, the survival was inactive: 136%.

As for `COc1ccccc1C(=O)NCC1(N2CCN(C)CC2)CCCCC1`, the survival is inactive: 86%.

Consider `Cc1ccc(C)c(NC(=O)N2CCC(N3CCN(Cc4ccc(F)cc4)C(=O)C3=O)CC2)c1`, for which the survival is inactive: 125%.

Regarding `Cc1ccccc1Nc1cc(C(=O)NC2CCCCC2)c2ccccc2n1`, the survival is inactive: 133%.

As to `CCOCCCn1c(SCC(=O)NCCCOC)nc2c(sc3ccccc32)c1=O`, the survival is inactive: 134%.

On to `Fc1ccc(Nc2ncnc3c2nc2n3CCCC2)cc1`, for which the survival is inactive: 76%.

`CCOC(=O)N1CCc2c(sc3c2c(=O)n(-c2ccc(Cl)cc2)c(=O)n3Cc2cccc(C)c2)C1`: the survival was inactive: 94%.

Regarding `Cn1c(=O)oc2cc(S(=O)(=O)N3CCCC(C(=O)N4CCN(c5ccccc5F)CC4)C3)ccc21` (stereo not given), the survival is inactive: 88%.

Consider `CCOCCCNC(=O)c1c[nH]c2ccc(S(=O)(=O)Nc3cccc(Cl)c3C)cc2c1=O`, for which the survival is inactive: 76%.

On to `Cc1ccc(CCNc2ncnc3onc(C)c23)cc1`, for which the survival was inactive: 119%.

With `Cc1ccc(C)c(NC(=O)C(Cc2ccccc2)N2Cc3ccccc3C2=O)c1` (stereo not given), the survival was inactive: 133%.

In the case of `O=C(NCCS(=O)(=O)N1CCN(c2ccc(F)cc2)CC1)c1cc(=O)c2ccccc2o1`, the survival is inactive: 74%.

As for `CSc1cccc(Nc2cc(C(=O)NCCCN(Cc3ccccc3)C(C)C)c3ccccc3n2)c1`, the survival was inactive: 75%.

Consider `COc1ccccc1N1CCN(S(=O)(=O)c2cc3[nH]c(=O)c(=O)[nH]c3cc2C)CC1`, for which the survival was inactive: 71%.

On to `O=C(c1ccccc1)N1CCN(c2ccc(F)cc2)CC1`, for which the survival is inactive: 108%.

Take `CCOc1ccc(CNC(=O)CCC(=O)N2CCSc3ccccc32)cc1`: the survival was inactive: 80%.

For `CN(c1ccccc1)C(c1ccc(F)cc1)c1nnnn1CC1CCCO1` (stereo not given), the survival is inactive: 101%.

On to `Cc1ccc2occ(CC(=O)N(Cc3ccc(N(C)C)cc3)C3CCS(=O)(=O)C3)c2c1` (stereo not given), for which the survival was inactive: 83%.

As to `CN1CCC(OC(=O)c2ccc(Cl)cc2Cl)CC1`, the survival is inactive: 104%.

In the case of `CCc1cccc(NC(=O)CN2CCCN(Cc3cccc(C)c3)S2(=O)=O)c1`, the survival was inactive: 70%.

With `COc1ccc2nc(N3CCN(C(=O)C4CC4)CC3)sc2c1`, the survival was inactive: 99%.

Regarding `COc1ccc(NC(=O)N2CCc3c([nH]c4ccc(OC)cc34)C2c2ccc(OC)cc2)cc1` (stereo not given), the survival was inactive: 93%.

Regarding `O=C(NCc1ccccc1)N(Cc1nc2ccccc2c(=O)[nH]1)C1CCCC1`, the survival was inactive: 107%.

As to `COC(=O)c1cc2oc3ccccc3c2n1Cc1c(F)cccc1Cl`, the survival was inactive: 112%.

With `COc1cc(OC)c2c(C)cc(=O)oc2c1`, the survival is inactive: 109%.

On to `CCN(CC)C(=O)C1CCCN(c2ncnc3onc(C)c23)C1` (stereo not given), for which the survival is inactive: 73%.

Take `CN(N)c1cc(=O)n(C)c(=O)[nH]1`: the survival was inactive: 104%.

Consider `CCOc1ccc2nc(NCCNC(=O)c3cc(OC)c(OC)c(OC)c3)c(C#N)cc2c1`, for which the survival was inactive: 103%.

With `COc1ccc(N2CCN(C(=O)c3ccc4nc(N5CCC(C)CC5)sc4c3)CC2)cc1`, the survival was inactive: 86%.

In the case of `Cc1ccc(Cl)cc1N(C)C(=O)c1cnc(N2CCOCC2)c2ccccc12`, the survival was inactive: 68%.

With `COc1cccc(-c2nc3c(C#N)c[nH]n3c2NC2CCCCC2)c1OC`, the survival is inactive: 78%.

As to `COc1ccc(Br)cc1Cc1nc(C)cc(Cl)n1`, the survival was inactive: 108%.

`CC(NC(=O)c1sc2ncccc2c1-n1cccc1)c1ccccc1` (stereo not given): the survival was inactive: 69%.

As to `CC(C)N1CCN(S(=O)(=O)c2ccc(Cl)cc2)CC1`, the survival was inactive: 100%.

For `O=C(NCC(c1cccnc1)N1CCN(Cc2ccccc2)CC1)C(=O)Nc1cccc(F)c1` (stereo not given), the survival is inactive: 114%.

Turning to `Cc1ccc(Cn2c(=O)n(CC3CCC(C(=O)N4CCOCC4)CC3)c(=O)c3sccc32)cc1` (stereo not given), the survival is inactive: 71%.

Consider `CCOc1ccccc1C(=O)NC1CC2CCCC(C1)N2C1CC1` (stereo not given), for which the survival was inactive: 109%.

`C/C(=N\NC(N)=O)C1CC(CC(C)C)C(=O)O1` (stereo not given): the survival is inactive: 115%.

As to `O=C(CC1Oc2ccc(Cl)cc2NC1=O)NCc1ccccc1` (stereo not given), the survival is inactive: 85%.

Turning to `CCOC(=O)CC(NC(=O)Cn1nnc(-c2ccc(C(F)(F)F)cc2)n1)c1ccc(C)cc1` (stereo not given), the survival was inactive: 87%.

Turning to `CCN(CC)S(=O)(=O)c1ccc2c(c1)N(CC(=O)Nc1ccc(F)cc1)C(=O)CO2`, the survival was inactive: 76%.

Turning to `Cc1ccc(S(=O)(=O)N2CCCc3cc(NC(=O)c4ccccc4Cl)ccc32)cc1`, the survival was inactive: 128%.

`COc1ccc(CCNC(=O)CCCCCn2c(SCC(N)=O)nc3cc4c(cc3c2=O)OCO4)cc1OC`: the survival is inactive: 76%.

For the compound `CCOC(=O)CNc1cccc(Cl)c1`, the survival is inactive: 112%.

For `CCN(CC)C(=O)/C(=C\c1ccc(OC)c(OC)c1)n1ccccc1=O`, the survival is inactive: 96%.

For `Cc1ccc(C)c(N(C)C(=O)C2CCN(c3ncnc4c3nc3n4CCCCC3)CC2)c1`, the survival is inactive: 63%.

With `Cc1ccc(CNCc2c(C(=O)O)c(C)n(Cc3ccc(C)cc3)c2C)cc1`, the survival was inactive: 105%.

In the case of `O=C(Nc1c(C(=O)c2ccc(F)cc2)oc2ccccc12)c1cc(-c2ccccc2)on1`, the survival is inactive: 92%.

Regarding `COc1ccc(NC(=O)N(Cc2nnc3n2CCCCC3)c2ccc(OC)c(Cl)c2)cc1`, the survival was inactive: 47%.

As for `Cn1cnc(S(=O)(=O)N2CCCC(C(=O)Nc3cccc(C#N)c3)C2)c1` (stereo not given), the survival was inactive: 130%.

`CCN(CC)S(=O)(=O)c1nnc(NC(=O)COc2cccc(C)c2)s1`: the survival was inactive: 96%.

On to `COCCNC(=O)CSc1nc2ccccc2nc1Cc1ccc(C)cc1`, for which the survival was inactive: 70%.

`CCn1c(=O)cc(OCC(=O)Nc2cc(OC)c(OC)c(OC)c2)c2ccccc21`: the survival was inactive: 63%.

Take `O=C(CN(c1ccc2c(c1)OCCO2)S(=O)(=O)c1ccccc1)NC1CC1`: the survival was inactive: 113%.

For `CCOc1ccc(CNC(=O)c2ccc3nc(CC)c(CC)nc3c2)cc1OC`, the survival was inactive: 69%.

Regarding `CCc1ccc(S(=O)(=O)c2c(C(=O)c3ccc(C)c(C)c3)cnc3ccccc23)cc1`, the survival was inactive: 96%.

As to `COc1cccc(N2CCN(c3ccc4nnc(CCC(=O)O)n4n3)CC2)c1`, the survival is inactive: 72%.

Turning to `CC(C)CC(=O)Nc1ccc(S(=O)(=O)NCc2ccco2)cc1`, the survival was inactive: 76%.

As for `COc1cccc(Cc2nc3ccccc3nc2SCC(=O)Nc2ccccc2F)c1`, the survival was inactive: 93%.

For `COc1cc2c(cc1OC)C(C)N(C(C)=O)CC2` (stereo not given), the survival was inactive: 98%.

For `CN(C)c1ccc(CNC(=O)c2ccc(NC(=O)c3nsc4ccccc34)cc2)cc1`, the survival is inactive: 71%.

With `CCS(=O)(=O)N1CCNCC1`, the survival is inactive: 104%.

With `O=C(Cn1c(=O)n(-c2ccccc2)c(=O)c2c3c(sc21)CCCC3)Nc1cccc(F)c1`, the survival was inactive: 85%.

Turning to `Cc1c(C(=O)NCc2ccccc2Cl)cccc1-n1cnc2cccnc21`, the survival is inactive: 83%.

With `Cc1cccc(CNC(=O)c2ccc3nc(-c4ccccc4)c(-c4ccccc4)nc3c2)c1`, the survival is inactive: 84%.

As to `CCC12CN3CC(C)(CN(C1)C3c1c(C)n(C)c3ccccc13)C2=O` (stereo not given), the survival was inactive: 89%.

`CC(C)C1N=C2c3ccccc3N=C(SCC(=O)NCc3ccc(F)cc3)N2C1=O` (stereo not given): the survival is inactive: 72%.

As for `Cc1cccc(NC(=O)Cn2c(=O)n(CCc3ccccc3)c(=O)c3sc4ccccc4c32)c1`, the survival was inactive: 133%.

Consider `CCOC(=O)Cn1c(=O)n(C2CCCCC2)c2nc(-c3ccccc3Cl)nc(C(N)=O)c21`, for which the survival is inactive: 66%.

Take `O=C(Nc1c[nH]c(=O)[nH]c1=O)c1cccc(C(=O)Nc2c[nH]c(=O)[nH]c2=O)c1`: the survival was inactive: 105%.

As for `O=C1CC2C(=O)NCCN2C(=NC(=O)c2ccc(Cl)cc2)N1` (stereo not given), the survival is inactive: 100%.

Turning to `O=C(CSc1nc2c([nH]c3ccccc32)c(=O)n1-c1ccc(F)cc1)N1CCCc2ccccc21`, the survival was inactive: 73%.

Take `COc1cc(NC(=O)c2cc(C3CC3)nc3c2c(C)nn3-c2ccc(C)cc2)cc(OC)c1`: the survival was inactive: 79%.

Regarding `Nc1c(-c2nc(-c3ccc(Cl)cc3)no2)nnn1-c1ccc(C(F)(F)F)c(Cl)c1`, the survival is inactive: 88%.
